No constants are given. Whether binding was seen depends on the method and setting. Binding seen in cells or lysates may run through a third protein. Some results given as binding are weak or reduced against the parent protein; the word gives no strength.
Columns and labels:
[1] = biological target: CpoS(L2)-FLAG (C. trachomatis serovar L2); experiment: co-IP; HeLa cells infected with strains expressing CpoS-FLAG (ortholog or variant) and transfected with EGFP-Rab plasmids; CpoS-FLAG precipitated from lysates at 26 hpi with ANTI-FLAG M2 magnetic beads; western blot
EGFP-Rab1A (human) = EGFP-Rab1A (human) (UniProt P62820); experiment: co-IP; lysates of infected HeLa cells expressing EGFP-Rab proteins; EGFP-Rab precipitated with GFP-Trap_MA beads (anti-GFP), washed with TBS/EDTA buffer; western blot for CpoS(L2)-FLAG
EGFP-Rab6B (human) = EGFP-Rab6B (human) (UniProt Q9NRW1); experiment: as above
EGFP-Rab35 (human) = EGFP-Rab35 (human) (UniProt Q15286); experiment: as above

Chains of the proteins cited; added tags and fusions are not shown.
UniProt P62820: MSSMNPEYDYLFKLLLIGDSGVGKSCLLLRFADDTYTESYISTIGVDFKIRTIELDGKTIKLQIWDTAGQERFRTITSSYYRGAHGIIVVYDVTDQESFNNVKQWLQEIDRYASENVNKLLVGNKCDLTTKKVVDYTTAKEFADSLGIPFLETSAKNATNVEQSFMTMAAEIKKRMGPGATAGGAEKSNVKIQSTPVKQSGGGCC
UniProt Q9NRW1: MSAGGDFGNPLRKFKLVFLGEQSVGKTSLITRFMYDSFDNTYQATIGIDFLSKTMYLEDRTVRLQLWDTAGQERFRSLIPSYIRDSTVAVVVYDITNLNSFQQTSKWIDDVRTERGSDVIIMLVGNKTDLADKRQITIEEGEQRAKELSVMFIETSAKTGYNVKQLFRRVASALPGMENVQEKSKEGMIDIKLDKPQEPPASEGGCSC
UniProt Q15286: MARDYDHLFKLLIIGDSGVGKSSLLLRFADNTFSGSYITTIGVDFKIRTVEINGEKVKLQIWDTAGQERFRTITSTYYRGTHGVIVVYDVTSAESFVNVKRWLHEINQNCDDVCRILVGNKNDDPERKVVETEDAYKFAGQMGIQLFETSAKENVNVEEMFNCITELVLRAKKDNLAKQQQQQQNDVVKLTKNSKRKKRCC
UniProt P20339: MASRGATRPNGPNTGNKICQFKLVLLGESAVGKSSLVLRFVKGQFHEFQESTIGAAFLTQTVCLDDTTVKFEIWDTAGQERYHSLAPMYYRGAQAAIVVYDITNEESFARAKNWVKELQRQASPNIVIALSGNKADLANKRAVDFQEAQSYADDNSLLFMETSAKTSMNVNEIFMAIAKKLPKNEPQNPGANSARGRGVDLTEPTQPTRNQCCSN
UniProt A0A0H3MBY4: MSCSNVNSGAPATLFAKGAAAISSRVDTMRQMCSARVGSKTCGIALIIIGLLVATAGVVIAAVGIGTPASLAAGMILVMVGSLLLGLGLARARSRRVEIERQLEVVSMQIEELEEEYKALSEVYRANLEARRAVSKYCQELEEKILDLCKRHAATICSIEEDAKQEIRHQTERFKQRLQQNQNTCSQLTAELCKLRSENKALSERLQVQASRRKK

Substance | binding [1] | binding (EGFP-Rab1A (human)) | binding (EGFP-Rab6B (human)) | binding (EGFP-Rab35 (human))
EGFP-Rab5A (from UniProt P20339 1-215) | no binding |  |  | 
EGFP-Rab35 (from UniProt Q15286 1-201) | binds |  |  | 
EGFP-Rab1A (from UniProt P62820 1-205) | binds |  |  | 
CpoS(L2)-FLAG (from UniProt A0A0H3MBY4 1-215) |  | binds | binds | binds
